Source: PubChem BioAssay AID488969 (Vanderbilt High Throughput Screening Facility, 2010)
In all, about 110,000 compounds were measured (“z-score”: median about -0.1, highest 2% from about 2 on). Some of the results follow. Active and inactive are the calls of the source.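 Rule for the calls: active = z-score in the third read window above 3 or below -3; inactive = the rest.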

Target: Metabotropic glutamate receptor 8 (Rattus norvegicus) (UniProt P70579)
Assay: rat mGluR8 modulators via GIRK flux, primary screen, cell-based, thallium flux, HTS (AID 488969)
Conditions: HEK293 rat mGluR8, GIRK (G protein-gated inwardly rectifying potassium channel) thallium flux, FluoZin2; at 10 µM; stronger effect = higher value; submaximal glutamate (EC20) added with thallium

Sequence of UniProt P70579 (P70579 whole entry, looked up): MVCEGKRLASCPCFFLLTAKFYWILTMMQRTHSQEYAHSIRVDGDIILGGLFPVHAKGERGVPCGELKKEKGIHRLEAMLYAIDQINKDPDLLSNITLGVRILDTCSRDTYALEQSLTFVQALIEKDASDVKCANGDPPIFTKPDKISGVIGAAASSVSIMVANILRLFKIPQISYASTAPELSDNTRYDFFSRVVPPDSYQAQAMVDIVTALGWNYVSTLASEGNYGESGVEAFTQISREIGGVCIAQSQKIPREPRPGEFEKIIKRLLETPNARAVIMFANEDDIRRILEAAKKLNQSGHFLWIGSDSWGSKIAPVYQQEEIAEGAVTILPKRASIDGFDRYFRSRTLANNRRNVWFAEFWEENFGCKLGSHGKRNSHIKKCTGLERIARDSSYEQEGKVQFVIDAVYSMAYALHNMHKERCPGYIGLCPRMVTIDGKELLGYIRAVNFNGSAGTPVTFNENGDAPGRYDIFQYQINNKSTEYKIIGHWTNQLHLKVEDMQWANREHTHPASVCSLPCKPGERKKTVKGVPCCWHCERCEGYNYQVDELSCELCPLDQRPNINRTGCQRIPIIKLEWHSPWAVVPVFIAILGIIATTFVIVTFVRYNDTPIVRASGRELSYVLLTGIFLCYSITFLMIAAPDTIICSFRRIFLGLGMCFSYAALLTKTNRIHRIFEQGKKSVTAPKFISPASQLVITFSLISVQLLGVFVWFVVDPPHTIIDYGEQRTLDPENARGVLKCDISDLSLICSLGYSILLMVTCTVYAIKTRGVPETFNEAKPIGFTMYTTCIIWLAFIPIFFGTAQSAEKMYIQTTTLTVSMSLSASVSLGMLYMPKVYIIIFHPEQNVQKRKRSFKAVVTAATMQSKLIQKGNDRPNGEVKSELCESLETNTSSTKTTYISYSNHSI

SMILES	z-score
CCOC(=O)Cn1nc(/C=C/c2ccc(C(C)C)cc2)ccc1=O	-0.0298
O=C(O)CCC(=O)N1N=C(c2cccs2)CC1c1cn(-c2ccccc2)nc1-c1ccccc1 (centres undefined)	-0.238
COc1ccc(Cc2nc3c4c(ncn3n2)Oc2c(ccc3ccccc23)C4c2ccc(OC)c(OC)c2)cc1 (centres undefined)	-0.0955
CC1CN(C(=O)CN2C(=O)NC3(CCCCCC3)C2=O)CC(C)O1 (centres undefined)	0.0576
Nc1c(C(=O)NCCc2ccccc2)nnn1Cc1ccc(Cl)cc1	-0.25
Cc1snc(S(=O)(=O)/C(C#N)=N\Nc2ccccc2)c1C#N	0.366
Cc1cccc(Oc2nc(-c3cccc([N+](=O)[O-])c3)nc3ccccc23)c1C	-0.967
CCNc1nc(NCc2ccccc2)nc(SCC(=O)Nc2ccccc2)n1	-0.745
CC1(C)CC(C)(c2ccc(O)cc2O)N(c2cccc(Cl)c2)C(=S)N1 (centres undefined)	1.48
CN(C)[C@@H]1CCC[C@@H]1OC(=O)C(c1ccccc1)c1ccccc1	0.33
Cc1ccc(C)c(NC(=O)C2CCCN2/C=C/C(=O)C(F)(F)F)c1 (centres undefined)	-0.00109
Cc1ccc(NC(=O)CN2C(=O)N/C(=C/c3ccc(C)o3)C2=O)cc1	-0.131
C/C(=N\NC(=O)c1ccccc1)c1ccc(N2CCOCC2)cc1	0.862
O=c1[nH]cc(COCc2ccccc2)c(=O)[nH]1	0.0732
O=C(NCCCN1CCOCC1)c1ccco1	0.0886
COc1cc(C2c3c(-c4ccccc4)n[nH]c3C(=O)N2c2ccccc2)ccc1O (centres undefined)	-1.29
N#CC1(c2ccc(NC(=O)c3ccccc3F)cc2)CCCC1	0.629
O=[N+]([O-])c1ccc(Sc2n[nH]c(-c3ccccc3)n2)nc1	-0.0866
CC(Oc1ccccc1)C(=O)Nc1ccccc1O (centres undefined)	-0.413
Cc1ccc(OCC(=O)N2N=C(C(F)(F)F)CC2(O)C(C)(C)C)cc1C (centres undefined)	active: 3.56
O=C1c2ccccc2C(=O)N1c1n[nH]c(CCc2ccccc2)n1	-0.161
COc1ccc(/C=N/Nc2ncnc3scc(-c4ccccc4)c23)cc1OC	-1.18

SMILES	z-score
CCc1ccc(N2C(=O)C3C4CCC(C4=C(C)C)C3C2=O)cc1 (centres undefined)	-0.173
COc1cccc(CC(NC(C)=O)C(=O)NC2CCN(S(=O)(=O)c3cccc4ccccc34)CC2)c1 (centres undefined)	0.0112
O=C(NCC1CCCO1)c1onc(CSc2ccc(F)cc2)c1C(=O)O (centres undefined)	-0.16
Cc1cc(NC(=O)C23CCC(C)(c4nc5cc(Cl)c(Cl)cc5nc42)C3(C)C)no1 (centres undefined)	-0.019
CCOc1ccc(C2NC(=O)C(C#N)=C(S)N2c2ccc(OC)cc2)cc1OC (centres undefined)	-0.527
COc1cccc2cc(C(N)=O)/c(=N/NC(=O)COc3ccc(Cl)cc3)oc12	-0.725
CCN(C(=O)c1cc(Cl)ccc1OC)c1ccccc1C	-0.578
O=C(Cn1[nH]c(=O)c2ccccc2c1=O)Nc1ccc(-c2nnc3n2CCCCC3)cc1	-0.0205
CCCC(=O)Nc1cc(C)c(NC(=O)c2ccccn2)cn1	0.64
CCOc1cc(S(=O)(=O)N2CCC(c3nc4ccccc4s3)CC2)c(OCC)cc1S(=O)(=O)N1CCCCC1	0.223
N#Cc1nc(Cc2ccccc2)oc1NCc1ccccc1Cl	1.31
Cc1ccc(CSc2nc3c(c(=O)[nH]c(=O)n3C)n2CCC(C)C)cc1	-0.092
COc1cc(/C=N/n2nnnc2N)ccc1OCc1c(C)no[n+]1[O-]	-0.217
Cc1cc(N2CCN(c3ccccc3)CC2)nc(NCc2ccccc2)n1	3
O=C(NCCOCc1ccc(Cl)cc1)c1ncn[nH]1	-0.386
CC(=O)NC1C(Oc2ccc(C)cc2)OC2COC(c3ccco3)OC2C1O (centres undefined)	-0.122
C=CCOc1ccc2cccc(/C=N/NC(=O)c3cc4cc([N+](=O)[O-])ccc4s3)c2c1	-0.78
C#CCSc1nnc(-c2sc3ccccc3c2Cl)o1	0.182
Cn1ccnc1C(=O)c1cc(=O)c2ccccc2o1	0.0233
CCN(CC)CCCNC(=O)c1cc(-c2ccc(Cl)cc2)on1	1.7
Cn1c(=O)[nH]c(=O)c2c1nc(N1CCCCC1)n2CCCSc1nc2ccccc2s1	0.88
OCCCc1nc2n(n1)C(c1ccccc1Cl)C=C(c1cccs1)N2 (centres undefined)	-1.48

SMILES	z-score
CC(C)c1ccc(NC(=O)NC2CCN(CC(=O)Nc3cccc4ccccc34)CC2)cc1	-0.494
c1ccc(-c2cn3nc(-c4ccccc4)c(-c4ccccc4)nc3n2)cc1	-1.03
Nc1ccc2oc(-c3ccc4nc[nH]c4c3)nc2c1	-0.297
O=C(CO/N=C1\CCCc2nonc21)Nc1ccccc1Cl	0.126
O=C(NCc1ccccc1)C1CC2CCCC(C1)C2=O (centres undefined)	0.256
COc1ccc(Oc2c(C)oc3c(CN4CCOCC4)c(O)ccc3c2=O)cc1	-0.179
Cc1ccc(-c2cc3nn(-c4ccccc4)c(N)c3c(=O)o2)cc1	-0.23
Cc1ccc(Nc2c(N)c(=O)oc3ccccc23)cc1	-0.337
COc1cccc(CNc2ccc(F)c(Cl)c2)c1OC	-0.178
Cc1cc(C)nc(/N=C(/NC(=O)Nc2cccc(Cl)c2)Nc2ccccc2)n1	-0.371
CCOC(=O)CN1C(=O)C(C)(C)Oc2ccc(C(=O)NC(C)(C)CC)cc21	0.0354
COc1cc(SC)ccc1C(=O)Nc1ccc(C)cc1C	-0.165
CCCc1cc(C(=O)Nc2cccnc2Cl)no1	-0.208
COc1cc(S(=O)(=O)NCC2CCCO2)ccc1Br (centres undefined)	-0.194
CCN(CC)CCNc1nc(-c2ccco2)c2c(c1C#N)CC(C)(C)OC2	1.96
Cc1cc(C)c2[nH]c(=O)c(CN(CC3CCCO3)C(=S)Nc3ccccc3)cc2c1 (centres undefined)	-0.0101
CCC(=O)/C=C1/Sc2ccc(OC)cc2N1CC	0.259
O=C(C1=NN[C@@H]2C(=O)N(c3cccc(F)c3)C(=O)[C@H]12)c1ccc2ccccc2n1	-0.0642
COc1cccc(C2CC(c3cccs3)=NN2C(=O)CSc2nc3ccccc3s2)c1OC (centres undefined)	-0.162
O=C(CSc1nnc(-c2ccccc2)n1Cc1ccccc1)N1CCCC1	0.192
CCn1cc(Br)c(C(=O)Nc2ccc(Cl)c(Cl)c2)n1	0.0527
Cc1oc(-c2cccs2)nc1CSCC(=O)NC1CC1	0.245

SMILES	z-score
CCc1ccccc1NS(=O)(=O)c1ccc2c(c1)NC(=O)CC(=O)N2	-0.0262
COc1nc(-c2ccccc2)ccc1-c1noc(-c2cccs2)n1	-0.947
C#CC(=O)N(c1ccc(OC)c(OC)c1)C(C(=O)NC1CCCC1)c1cccs1 (centres undefined)	-0.127
COc1ccc(CN2CN(c3ccc(Cl)cc3)C(=O)N(n3cnnc3)C2)cc1	0.169
Cc1ncoc1C(=O)Nc1ccccc1C(N)=O	0.25
COc1ccc(OC)c(NS(=O)(=O)c2ccc(Cl)nc2)c1	-0.0503
O=C(COC(=O)c1ccc(Cl)nc1)NCc1ccc2c(c1)OCO2	-0.251
CCOC(=O)C1(C)/C(=N/Nc2ccccc2Cl)C(=O)C(=O)N1c1ccccc1 (centres undefined)	-0.24
Brc1ccc(-c2csc(-c3ccncc3)n2)cc1	0.161
CCOC(=O)c1nnn(-c2nonc2N)c1CN1CCc2ccccc2C1	0.134
Cc1cccc(NC(=O)CCCCCN2C(=O)c3ccccc3C2=O)n1	-0.261
Cc1nnc(NC(=O)Cc2ccc(OCc3c(C)noc3C)cc2)s1	-0.554
Cn1c(C(=O)NCCCN2CCN(c3ccccc3F)CC2)cc2c(=O)[nH]c3ccccc3c21	-0.0771
CCCc1cc(=O)n2[nH]cnc2n1	-0.0837
O=C(CSc1nc2ccc(S(=O)(=O)N3CCOCC3)cc2[nH]1)N1CCOCC1	0.333
CCCC(=O)c1cn(CC(=O)OC)c2ccccc12	-0.272
CN1C(=O)c2ccc(C(=O)NCc3ccccc3)cc2C1=O	0.0203
COc1ccc(C2CC(c3ccc(F)cc3)Nc3nc(N)nn32)cc1OC (centres undefined)	-0.125
Cn1nc(C(F)(F)F)c(C(=O)Nc2ccc(F)cc2F)c1Sc1ccc(Cl)cc1	-0.294
CCOC(=O)c1cnn(-c2ccccc2)c1NC(=O)CSc1nnc(-c2cccs2)n1CC	0.113
C=CCN1C(=O)/C(=C2/Sc3ccccc3N2C)SC1=Nc1ccccc1C	-0.792
CCCC(=NCc1ccccc1)C1=C(O)C(C(=O)OC)C(C)(C)CC1=O (centres undefined)	-0.0583

SMILES	z-score
COC(=O)c1ccccc1NC(=S)N(Cc1ccc2c(c1)OCO2)Cc1cc2cc(C)ccc2[nH]c1=O	2.03
Cc1ccc(SCc2cc(=O)[nH]c(/N=C(\N)Nc3ccccc3Sc3ccccc3)n2)cc1	-0.2
C/C(=N\NC(=O)CC1N=C(Cc2ccccc2)NNC1=O)c1ccc(C)cc1 (centres undefined)	-0.0833
CC(=O)N(Cc1ccc(F)cc1)C1=C(NCCc2ccccc2)C(=O)c2ccccc2C1=O	1.71e-05
COC(=O)c1ccccc1NC(=O)c1cnc2sccn2c1=O	-0.174
Cn1ncc(Br)c1C(=O)NC12CC3CC(CC(C3)C1)C2	-0.224
CCOC(=O)c1cnc2cc(-c3ccc(C)cc3)nn2c1-c1ccccc1	-0.28
CCOC(=O)C1CCN(C(=O)CSc2ccc(Cl)cc2)CC1	-0.702
CCCNS(=O)(=O)c1ccc(OCC(=O)N2CCOCC2)cc1	0.196
COC(=O)CSc1nc(NC(C)C)nc(N2CCOCC2)n1	-0.228
O=C1OCCC1Sc1nnc(-c2ccco2)o1 (centres undefined)	-0.349
COc1cccc(OC)c1C(=O)n1nc(C)cc1C	-0.189
O=C(COC(=O)C1(c2ccc(Cl)cc2)CCCC1)Nc1ncc(C(F)(F)F)cc1Cl	-0.527
CCCCNC(=O)CC1N=C2c3ccccc3N=C(SCC(=O)Nc3cccc(OC)c3)N2C1=O (centres undefined)	-0.275
CCOC(=O)c1ccc(NS(C)(=O)=O)cc1	-0.435
Cc1cc(NC(=O)CSc2nnc(COc3ccccc3)n2Cc2ccco2)no1	-0.458
CCCCCCC1CC(C)(/C(C)=N/NC(N)=O)OC1=O (centres undefined)	0.0111
Cc1ccc(C(=O)NCCCC(=O)O)o1	1.06
COc1ccc(C2N(C(=O)N3CCOCC3)CCN2S(=O)(=O)c2ccc(C)cc2)cc1 (centres undefined)	-0.384
O=C(c1ccco1)N(Cc1cccs1)C1CCS(=O)(=O)C1 (centres undefined)	0.56
COc1ccc(Br)cc1S(=O)(=O)N1CCCC1	-0.0684
